# A lower IC50 marks a more sensitive line; a fit beyond the top or the lowest dose is shown as a bound at that dose. AUC is the area under the same curve over the 256-fold range up to the top dose, as a fraction; values near 1 show little effect. For some of these results: Where the top dose is marked as inferred, it comes from the curve model; the source does not state it. For some of these results: Where an entry number is given, a second screen of the drug exists; the two often differ.
# Experiments:
# Assay in all cases: Viability of human cancer cell lines after 72 h of drug (GDSC screen)
# AS601245 = compound: N#CC(c1ccnc(NCCc2cccnc2)n1)c1nc2ccccc2s1 [AS601245]; conditions: top dose 8 µM; top dose inferred
# Experimental: (§1)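 Human cancer cell lines in 384-well plates, medium with 10% serum, drug for 72 h over a 256-fold dose range (nine 2-fold or five 4-fold steps up to the top dose). Adherent lines were fixed and stained with the nucleic acid dye Syto60, suspension lines read with resazurin; signal relative to control wells, capped at 0 and 100%. One two-parameter sigmoid per drug and line, fitted in a mixed model over all curves with the slope shared within a line.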
# YM201636 = compound: Nc1ccc(C(=O)Nc2cccc(-c3nc(N4CCOCC4)c4oc5ncccc5c4n3)c2)cn1 [YM201636]; conditions: top dose 5.12 µM; top dose inferred
# Experimental: as §1
# AZD6244 = compound: Cn1cnc2c(F)c(Nc3ccc(Br)cc3Cl)c(C(=O)NOCCO)cc21 [AZD6244]; conditions: top dose 4 µM; screen: GDSC drug entry 1498; top dose inferred
# Experimental: as §1
# EX-527 = compound: NC(=O)C1CCCc2c1[nH]c1ccc(Cl)cc21 [EX-527]; conditions: top dose 20 µM
# Experimental: as §1
Cell Line,AUC (AS601245),IC50 (AS601245),AUC (YM201636),IC50 (YM201636),AUC (AZD6244),IC50 (AZD6244),AUC (EX-527),IC50 (EX-527)
"HuP-T3 (pancreas, adherent)",0.929,> 8 µM,0.9,> 5.12 µM,0.625,0.6 µM,0.976,> 20 µM
"IA-LM (large cell lung carcinoma, adherent)",0.688,1.81 µM,0.982,> 5.12 µM,0.888,> 4 µM,0.983,> 20 µM
"IGR-37 (melanoma, adherent)",0.839,4.79 µM,0.809,2.4 µM,0.148,0.0233 µM,0.829,11 µM
"IHH-4 (thyroid, semi-adherent)",0.813,3.29 µM,0.993,> 5.12 µM,0.617,0.489 µM,0.984,> 20 µM
"IM-95 (stomach, adherent)",0.781,3.54 µM,0.747,1.74 µM,0.958,> 4 µM,0.986,> 20 µM
"IPC-298 (melanoma, adherent)",0.757,2.72 µM,0.93,> 5.12 µM,0.162,0.0237 µM,0.979,> 20 µM
"J82 (bladder, adherent)",0.756,2.72 µM,0.953,> 5.12 µM,0.914,> 4 µM,0.985,> 20 µM
"JEG-3 (urogenital system, adherent)",0.856,5.48 µM,0.991,> 5.12 µM,0.99,> 4 µM,0.985,> 20 µM
"JHH-1 (liver, adherent)",0.828,5.49 µM,0.792,2.54 µM,0.54,0.324 µM,0.985,> 20 µM
"JHH-2 (liver, adherent)",0.925,> 8 µM,0.969,> 5.12 µM,0.899,> 4 µM,0.985,> 20 µM
"JHH-4 (liver, adherent)",0.811,4.24 µM,0.872,4.83 µM,0.946,> 4 µM,0.967,> 20 µM
"JHH-6 (liver, adherent)",0.855,6.56 µM,0.903,> 5.12 µM,0.957,> 4 µM,0.976,> 20 µM
"JHH-7 (liver, adherent)",0.786,3.23 µM,0.965,> 5.12 µM,0.801,1.81 µM,0.984,> 20 µM
"JHU-011 (head and neck, adherent)",0.908,> 8 µM,0.927,> 5.12 µM,0.934,> 4 µM,0.986,> 20 µM
"JHU-022 (head and neck, adherent)",0.982,> 8 µM,0.872,> 5.12 µM,0.772,1.97 µM,0.982,> 20 µM
"JIMT-1 (breast, adherent)",0.786,3.75 µM,0.952,> 5.12 µM,0.855,3.6 µM,0.982,> 20 µM
"K2 (melanoma, adherent)",0.841,> 8 µM,0.956,> 5.12 µM,0.311,0.0628 µM,0.981,> 20 µM
"KARPAS-620 (haematopoietic neoplasm, suspension)",0.844,4.58 µM,0.732,1.3 µM,0.442,0.178 µM,0.991,> 20 µM
"KLE (endometrium, adherent)",0.73,3.33 µM,0.849,> 5.12 µM,0.935,> 4 µM,0.978,> 20 µM
"KMH-2 (thyroid, adherent)",0.809,3.64 µM,0.99,> 5.12 µM,0.452,0.188 µM,0.976,> 20 µM
"KMRC-1 (kidney, adherent)",0.96,> 8 µM,0.94,> 5.12 µM,0.84,3 µM,0.984,> 20 µM

Cell Line,AUC (AS601245),IC50 (AS601245),AUC (YM201636),IC50 (YM201636),AUC (AZD6244),IC50 (AZD6244),AUC (EX-527),IC50 (EX-527)
"KMRC-20 (kidney, adherent)",0.967,> 8 µM,0.984,> 5.12 µM,0.943,> 4 µM,0.985,> 20 µM
"KON (head and neck, adherent)",0.747,2.5 µM,0.987,> 5.12 µM,0.95,> 4 µM,0.983,> 20 µM
"KOSC-2 (head and neck, adherent)",0.982,> 8 µM,0.955,> 5.12 µM,0.813,2.29 µM,0.985,> 20 µM
"KP-2 (pancreas, adherent)",0.777,3.5 µM,0.97,> 5.12 µM,0.473,0.21 µM,0.985,> 20 µM
"KP-3 (pancreas, adherent)",0.873,> 8 µM,0.916,> 5.12 µM,0.8,2.38 µM,0.984,> 20 µM
"KP-4 (pancreas, adherent)",0.819,4.32 µM,0.986,> 5.12 µM,0.987,> 4 µM,0.988,> 20 µM
"KU-19-19 (bladder, adherent)",0.986,> 8 µM,0.987,> 5.12 µM,0.544,0.329 µM,0.982,> 20 µM
"KYSE-50 (oesophagus, adherent)",0.789,3.22 µM,0.92,> 5.12 µM,0.985,> 4 µM,0.979,> 20 µM
"KYSE-70 (oesophagus, adherent)",0.817,5.01 µM,0.958,> 5.12 µM,0.981,> 4 µM,0.985,> 20 µM
"KYSE-150 (oesophagus, adherent)",0.941,> 8 µM,0.973,> 5.12 µM,0.979,> 4 µM,0.987,> 20 µM
"KYSE-180 (oesophagus, adherent)",0.798,3.62 µM,0.953,> 5.12 µM,0.934,> 4 µM,0.983,> 20 µM
"KYSE-220 (oesophagus, adherent)",0.927,> 8 µM,0.927,> 5.12 µM,0.824,2.56 µM,0.985,> 20 µM
"KYSE-270 (oesophagus, adherent)",0.802,3.28 µM,0.92,> 5.12 µM,0.954,> 4 µM,0.989,> 20 µM
"KYSE-510 (oesophagus, adherent)",0.823,3.71 µM,0.959,> 5.12 µM,0.971,> 4 µM,0.992,> 20 µM
"KYSE-520 (oesophagus, adherent)",0.973,> 8 µM,0.946,> 5.12 µM,0.882,> 4 µM,0.981,> 20 µM
"LC-1-sq (lung squamous cell carcinoma, adherent)",0.956,> 8 µM,0.971,> 5.12 µM,0.976,> 4 µM,0.983,> 20 µM
"LCLC-97TM1 (large cell lung carcinoma, adherent)",0.717,2.21 µM,0.865,> 5.12 µM,0.806,2.27 µM,0.982,> 20 µM
"LCLC-103H (large cell lung carcinoma, adherent)",0.727,2.05 µM,0.915,> 5.12 µM,0.99,> 4 µM,0.988,> 20 µM
"LK-2 (lung squamous cell carcinoma, adherent)",0.773,2.93 µM,0.862,3.99 µM,0.988,> 4 µM,0.989,> 20 µM
"LN-18 (glioma, adherent)",0.888,6.01 µM,0.994,> 5.12 µM,0.993,> 4 µM,0.993,> 20 µM
"LN-405 (glioma, adherent)",0.873,> 8 µM,0.949,> 5.12 µM,0.95,> 4 µM,0.983,> 20 µM

Cell Line,AUC (AS601245),IC50 (AS601245),AUC (YM201636),IC50 (YM201636),AUC (AZD6244),IC50 (AZD6244),AUC (EX-527),IC50 (EX-527)
"LNCaP-Clone-FGC (prostate, adherent)",0.842,6.84 µM,0.788,2.6 µM,0.97,> 4 µM,0.983,> 20 µM
"LNZTA3WT4 (glioma, adherent)",0.946,> 8 µM,0.961,> 5.12 µM,0.944,> 4 µM,0.988,> 20 µM
"LOU-NH91 (lung squamous cell carcinoma, adherent)",0.883,> 8 µM,0.959,> 5.12 µM,0.887,> 4 µM,0.986,> 20 µM
"LS-180 (large intestine, adherent)",0.856,7.94 µM,0.984,> 5.12 µM,0.608,0.516 µM,0.982,> 20 µM
"LU-99A (large cell lung carcinoma, adherent)",0.892,> 8 µM,0.86,4.2 µM,0.921,> 4 µM,0.987,> 20 µM
"LU-135 (small cell lung carcinoma, suspension)",0.725,1.9 µM,0.871,3.49 µM,0.987,> 4 µM,0.992,> 20 µM
"LoVo (large intestine, adherent)",0.729,2.26 µM,0.966,> 5.12 µM,0.873,3.91 µM,0.987,> 20 µM
"M14 (melanoma, adherent)",0.892,> 8 µM,0.807,2.79 µM,0.272,0.054 µM,0.985,> 20 µM
"M059J (glioma, adherent)",0.737,2.53 µM,0.955,> 5.12 µM,0.951,> 4 µM,0.961,> 20 µM
"MC-IXC (neuroblastoma, adherent)",0.869,4.28 µM,0.933,4.57 µM,0.994,> 4 µM,0.996,> 20 µM
"MCF7 (breast, adherent)",0.641,1.25 µM,0.986,> 5.12 µM,0.982,> 4 µM,0.982,> 20 µM
"MDA-MB-157 (breast, adherent)",0.789,3.63 µM,0.938,> 5.12 µM,0.986,> 4 µM,0.985,> 20 µM
"MDA-MB-175-VII (breast, adherent)",0.909,> 8 µM,0.922,> 5.12 µM,0.977,> 4 µM,0.987,> 20 µM
"MDA-MB-231 (breast, adherent)",0.87,> 8 µM,0.986,> 5.12 µM,0.839,2.97 µM,0.975,> 20 µM
"MDA-MB-330 (breast, adherent)",0.827,5.81 µM,0.897,> 5.12 µM,0.975,> 4 µM,0.985,> 20 µM
"MDA-MB-361 (breast, adherent)",0.809,4.14 µM,0.846,3.69 µM,0.967,> 4 µM,0.984,> 20 µM
"MDA-MB-415 (breast, adherent)",0.878,> 8 µM,0.966,> 5.12 µM,0.933,> 4 µM,0.979,> 20 µM
"MDA-MB-436 (breast, adherent)",0.895,> 8 µM,0.911,> 5.12 µM,0.877,> 4 µM,0.98,> 20 µM
"MDA-MB-453 (breast, adherent)",0.928,> 8 µM,0.803,2.89 µM,0.984,> 4 µM,0.972,> 20 µM
"MDA-MB-468 (breast, adherent)",0.922,> 8 µM,0.934,> 5.12 µM,0.986,> 4 µM,0.969,> 20 µM

# — the supplement of paper PMC4967469
